Test results from the supplement of paper PMC7826260.
The other results are listed elsewhere or left out. Each Rep nickase domain was tested in vitro on the same pool of single strands for 1 h at 37 °C with 3 µM enzyme; only the middle of the 90-letter strands is printed. The score is log2 (uncut reads / reads without enzyme); the lower, the more was cut; hits are not called. Reads are scaled to the total, so uncut sequences can rise above 0 when many others are cut.

Tested on: T1, Rep nickase domain of tomato golden mosaic virus
T1 sequence (residues 1-124 of Rep, tag left off): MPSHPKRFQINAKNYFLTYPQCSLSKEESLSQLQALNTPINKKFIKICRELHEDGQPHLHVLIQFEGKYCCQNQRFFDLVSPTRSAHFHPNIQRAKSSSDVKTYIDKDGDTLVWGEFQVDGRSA
Experiment: uncleaved DNA left, log2 of reads against the no-enzyme library (log2 ratio); higher = less cleavage (more negative = more Rep cleavage of the k-mer); sequences stand for … in CTCGTCCG…ACCGGAGA
Protocol: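 A pool of 90-nt single-stranded DNAs with seven random bases just before the constant AC of the nick site (name = the seven bases) was cut by 3 µM recombinant His6-SUMO-tagged Rep nickase domain (300 nM DNA, 50 mM HEPES pH 8.0, 50 mM NaCl, 1 mM MnCl2, 1 h, 37 °C, three replicates). Uncut DNA was amplified and sequenced.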

Row | Sequence | uncleaved DNA left (log2)
1 | GGCGAAG | 0.119
2 | TTAACCC | -0.177
3 | AAATTGA | -0.00259
4 | TCTATGA | 0.0763
5 | TCTTGAA | 0.091
6 | TGTACGG | 0.14
7 | CGCACGG | 0.114
8 | CGCCTAG | -0.151
9 | GAGGGCT | 0.0378
10 | CGTGGTG | 0.0236
11 | TTTGAGG | 0.131
12 | CGATCCG | -0.115
13 | TTATGGA | 0.123
14 | CATGCTG | -0.0167
15 | CACGACA | -0.103
16 | ACCCGGG | 0.0681
17 | ACAAGCC | 0.106
18 | ATGTTTT | -0.133
19 | TCGTATG | 0.194
20 | AGGAATT | 0.0193

Row | Sequence | uncleaved DNA left (log2)
21 | CATCTAA | 0.112
22 | GGTATTA | 0.0976
23 | AGCGAAA | 0.181
24 | CGGCGTG | -0.0276
25 | GGGTTGT | 0.0313
26 | GCGCGAG | -0.0419
27 | ATCAACG | -0.00229
28 | CGTACCC | -0.107
29 | ACTCATG | -0.000276
30 | CCGGGCA | 0.0188
31 | TCGAAGG | -0.0332
32 | CAGTTGT | -0.12
33 | CTGACAG | 0.0461
34 | TAAGTAT | -0.291
35 | GCGGGTC | 0.0808
36 | GCAGTAT | 0.121
37 | ATAGTAA | 0.048
38 | CGTATAG | -0.0263
39 | GCGGATC | 0.106
40 | ATACCGC | -0.0181
